Assay results: PubChem BioAssay AID1745846 (National Center for Advancing Translational Sciences (NCATS), 2022)
Screen size: about 1,400 compounds; about 30 (2%) were called active. This list was built around the results that the source calls inconclusive (neither active nor inactive); the mix of calls is not that of the screen. The call rests on the fitted dose curve; in most records, active means well fitted inhibition curve with a large enough effect; inconclusive means small, poorly fitted or top-dose-only effect; inactive means flat fitted curve, though single readings scatter. Potencies beside an inconclusive call are fits to weak or partial responses and may not hold up.

Test: Firefly Luciferase Counterscreen for Inhibitors of ATXN expression
Settings: luminescence; series mostly up to 57.5 µM
Source text: University of Utah School of Medicine, Salt Lake City, Utah
Spinocerebellar ataxia type 2 (SCA2) is a multisystem neurodegenerative disease caused by a dominantly acting mutation leading to expansion of a polyQ domain in the ataxin-2 protein (ATXN2). SCA2 patients develop progressive ataxia and later lose function in other neuronal systems. Prominent parkinsonian signs develop in some patients. Like many neurodegenerative disorders, no symptomatic or disease-modifying treatments are known.
The primary objective of the proposed research is to identify compounds inhibiting ATXN2 expression and to test them for efficacy in SCA2 mouse models. We have developed a cell-based assay paired with an in vivo mouse model using identical luciferase expression constructs. This approach takes advantage of an ATXN2-luciferase transgene, with the luciferase gene flanked by the upstream and downstream portions of the ATXN2 gene. Here we describe a 5-7 dose quantitative high thoroughput screen (qHTS) for compounds lowering ATXN2 expression. We screened the NIH Molecular Libraries Small Molecule Repository (MLSMR) and NCGC's mechanistically annotated (MIPE) and drug repurposing (NPC) collections of compounds for lowering expression of an ATXN2-luciferase reporter in HEK-293 cells. The assay is a multiplexed cell viability assay to ensure target reduction in the absence of cytotoxicity. Secondary qHTS assays included a CMV-luciferase reporter expressed in HEK-293 cells as well as a biochemical assay using recombinant luciferase to detect inhibitors of the reporter enzyme. Compounds that inhibit ATXN2 expression but is not cytotoxic were selected for confirmatory and secondary screens.
PROTOCOL TABLE (as described by Inglese J, Shamu CE and Guy RK. 2007)
SEQUENCE No. (e.g., 1, 2, 3, etc.); […] (e.g., Cells, Incubation, Reagent, etc.); VALUE; DESCRIPTION.
2; Compounds; 23 nL; Kalypsis pintool (Wako USA) equipped with a 1536-well pin head.
3; Enzyme; 1 uL; recombinant firefly luciferase (prepared in 50 mM Tris HCl pH7.5, 10 mM MgCl2, 0.05% BSA, 0.01% Tween20) at final concentration of 10 nM. Wells containing buffer only were used as control (set as 100% inhibition when normalizing data).
4; Incubation; 10 min; room temperature.
5; Detection; Luminescence; Viewlux plate reader (PerkinElmer).
NOTES (numbers refer to Sequence numbers above)
1. Luciferase substrate is added to 1536 well, Greiner white assay plate. Evaporation was prevented by covering assay plates with metal lids containing holes to allow gas diffusion.
2. Compounds were added in a dose response manner with the final concentrations of 57, 11.4, 2.28, 0.46, 0.091, 0.018, 0.0037 uM. Vehicle-only plates, with DMSO being pin-transferred to columns 5-48, were inserted uniformly at the beginning and the end of each library to monitor and record any shifts in assay performance.
3. Recombinant firefly luciferase (10 nM final concentration) is added to the assay plate.
5. End-point luminescence is then measured on the Viewlux (PerkinElmer) imager equipped with a clear emission filter using a 2 sec exposure.
Inglese J, Shamu CE and Guy RK, Reporting data from high throughput screening of small molecule libraries, Nature Chemical Biology, 2007, 3(8): 438-441. doi.org/10.1038/nchembio0807-438.
Potency means the concentration at half of the fitted maximal effect; tags describe the fitted curve by direction and shape.

Compound	Potency
CCOc1cc(/C=C2\SC(=N)N(c3nccs3)C2=O)ccc1OCCN1CCOCC1	inconclusive: 25.1 µM [inhibitor, partial curve, poor fit]
COc1ccc(-c2cc(CNc3nc(NC(C)C)nc4cc(-c5ccccc5)sc34)on2)cc1	inconclusive: 11.2 µM [inhibitor, partial curve]
CCc1ccc(/C=C/C(=O)c2cc(Br)ccc(=O)c2O)cc1	inconclusive: 15.8 µM [inhibitor, partial curve]
CCN1CCS/C1=C\C=C\C1=[N+](CC)CCS1	inactive
O=C(N/N=C/c1cc([N+](=O)[O-])ccc1O)c1cccc(N2CCCC2=O)c1	inconclusive: 25.1 µM [inhibitor, partial curve, poor fit]
CN1CCN(c2ccc(-c3cc(NC=O)c4ncc(-c5ccc(F)c(Cl)c5)n4c3)cc2)CC1	active: 15.8 µM
Cc1sc(NC(=O)c2cc(-c3ccc(Cl)cc3)nc3ccccc23)c(C(N)=O)c1C	active: 25.1 µM
COc1ccc(Nc2c3ccccc3nc3ccccc23)cc1	inactive
O=C1C=C(Nc2ccccc2O)c2ccccc2C1=O	inconclusive: 28.2 µM [inhibitor, partial curve, poor fit]
Cn1c(=O)c2c(nc(CN3CCN(Cc4ccccc4)CC3)n2Cc2ccc(Cl)cc2)n(C)c1=O	inactive
CN1CCCC1CCOC(C)(c1ccccc1)c1ccc(Cl)cc1 (stereo not drawn)	inactive
OC(CNCCc1ccccc1)COc1ccc(OCC(O)CNCCc2ccccc2)cc1 (stereo not drawn)	inactive
Cc1ccc(-c2noc(CCCC(=O)NC3CCCC3)n2)cc1	inconclusive: 15.8 µM [inhibitor, partial curve]
CCc1sc(C(=O)Nc2nc(-c3ccccn3)cs2)cc1C	active: 6.31 µM
CC(=O)NC(c1cccs1)c1cc([N+](=O)[O-])c2cccnc2c1O (stereo not drawn)	inconclusive: 15.8 µM [inhibitor, partial curve]
O=C(Nc1ccccc1C(=O)Nc1nnc(C(F)(F)F)s1)c1ccccc1	inconclusive: 25.1 µM [inhibitor, partial curve]
O=C(Nc1nc(-c2ccccn2)cs1)Nc1ccc(F)cc1F	active: 25.1 µM
Cn1c2c(c(=O)[nH]c1=O)C(c1cccc(O)c1)C1=C(N2)c2ccccc2C1=O (stereo not drawn)	inconclusive: 25.1 µM [inhibitor, partial curve, poor fit]
COc1cccc(/C=N/NC(=O)CSc2ccccc2C)c1O	inconclusive: 12.6 µM [inhibitor, partial curve]
COc1ccc(-c2csc(NC(=O)C3CCN(c4ncnc5sc(C)c(C)c45)CC3)n2)cc1OC	inactive
CCC(C)(C)c1ccc(Oc2ccc(N)cc2)cc1	inconclusive: 28.2 µM [inhibitor, single point]
Cc1ccc2nc(NC(=O)CSCC(=O)OCC(=O)c3ccc(Br)cc3)sc2c1	inconclusive: 15.8 µM [inhibitor, partial curve]

Compound	Potency
O=C(NN=C(c1ccccc1)c1ccccn1)c1ccccc1	inconclusive: 25.1 µM [inhibitor, partial curve, poor fit]
COC(=O)c1c(NC(=O)/C=C/C(=O)O)sc(C)c1-c1ccc(C(C)C)cc1	inconclusive: 25.1 µM [inhibitor, single point]
CC1(C)C(C=C(Cl)Cl)C1C(=O)Nc1ccc([N+](=O)[O-])cc1 (stereo not drawn)	inactive
COc1ccc(NC(=O)CSc2n[nH]c(-c3ccccn3)n2)cc1	inconclusive: 28.2 µM [inhibitor, partial curve, poor fit]
Cc1ccc(SC2=C(Sc3ccc(C)cc3)C(=O)c3ccccc3C2=O)cc1	inconclusive: 1.58 µM [inhibitor, full curve, poor fit]
Cc1nc2ccccc2c(=O)n1/N=C/c1c(O)ccc2oc3c(c12)CCCC3	inactive
O=C(O)CSc1cc(NS(=O)(=O)c2ccc(Cl)cc2)c2ccccc2c1O	inconclusive: 28.2 µM [inhibitor, single point]
COc1cccc(CNc2nc3cc(-c4ccccc4)sc3c(=O)n2C)c1OC	inconclusive: 20 µM [inhibitor, partial curve, poor fit]
Oc1c(C(Nc2cccc(C(F)(F)F)c2)c2ccncc2)ccc2cccnc12 (stereo not drawn)	inactive
O=C(Nc1nc(-c2ccccn2)cs1)c1cc(Cl)ccc1[N+](=O)[O-]	inconclusive: 20 µM [inhibitor, partial curve, poor fit]
CCOC(=O)c1c(C)sc2c1N(C(=O)CN(CC)CC)c1cc(Cl)ccc1S2	inactive
Cn1c(=O)c2cc(NC(=O)Nc3cccnc3)ccc2n1Cc1ccc(Cl)cc1	inconclusive: 28.2 µM [inhibitor, partial curve, poor fit]
O=C(CNC(=O)c1ccccc1F)N/N=C/c1cc(Br)ccc1OC(=O)/C=C/c1ccco1	inactive
COCCCNCCCOc1ccc(Cl)cc1C(C)(C)C	inactive
Cc1c(N=C2C=CC(=O)c3ccccc32)c(=O)n(-c2ccccc2)n1C	inconclusive: 22.4 µM [inhibitor, partial curve]
O=C(Nc1cccc(-c2cccc(Cl)c2)c1)C1CCN(C2CCC2)CC1	inconclusive: 28.2 µM [inhibitor, partial curve, poor fit]
C=CS(=O)(=O)c1c2cc(OC)ccc2nc2ccc(OC)cc12	inconclusive: 3.55 µM [inhibitor, full curve]
CCc1cc(-c2nnn(CCC3COCCO3)c2CC)ccc1-c1cn(CCc2c[nH]c3ccccc23)nn1 (stereo not drawn)	inconclusive: 15.8 µM [inhibitor, partial curve]
C[C@@H]1CN([C@H](C)CO)S(=O)(=O)c2ccc(-c3ccc(C#N)cc3)cc2O[C@H]1CN(C)C(=O)Nc1cc(F)ccc1F	inactive
Cc1cc2oc3cc(NCCC4CCCN4C)ccc3c(=O)c2cc1C (stereo not drawn)	active: 10 µM
Cc1cc(C)c2nc(NNC(=O)c3ccc(S(=O)(=O)N4CC(C)CC(C)C4)cc3)sc2c1 (stereo not drawn)	inconclusive: 17.8 µM [inhibitor, partial curve]
